The source of these data is PubChem BioAssay AID2451 (National Center for Advancing Translational Sciences (NCATS), 2010).

Hit rate of the full screen: of about 290,000 compounds, about 2,100 (0.72%) were called active. Inconclusive results (about 4%) are left out. Calls come from the whole dose curve; as a rule, active = well fitted inhibition curve with a large enough effect; inconclusive = small, poorly fitted or top-dose-only effect, or effect the other way; inactive = flat fitted curve, though single readings scatter. This is a selection; strong and weak results do not stand in their true shares.
% is set by controls: 0 for no effect and ±100 for the full control effect; potency is the fitted concentration of half-maximal effect.

The target of the test is Fructose-bisphosphate aldolase (Giardia intestinalis (strain ATCC 50803 / WB clone C6)) (UniProt A8B2U2). Put plainly: qHTS Assay for Inhibitors of Fructose-1,6-bisphosphate Aldolase from Giardia Lamblia. Note: nearly all actives have a fitted effect of over 55% in size. To be noted: purified Giardia FBPA; series mostly up to 59.6 µM; activity, negative = inhibition: at the top concentration. An excerpt: Assay Provider: Osnat Herzberg, University of Maryland
Chain of UniProt A8B2U2 (A8B2U2 whole entry, looked up): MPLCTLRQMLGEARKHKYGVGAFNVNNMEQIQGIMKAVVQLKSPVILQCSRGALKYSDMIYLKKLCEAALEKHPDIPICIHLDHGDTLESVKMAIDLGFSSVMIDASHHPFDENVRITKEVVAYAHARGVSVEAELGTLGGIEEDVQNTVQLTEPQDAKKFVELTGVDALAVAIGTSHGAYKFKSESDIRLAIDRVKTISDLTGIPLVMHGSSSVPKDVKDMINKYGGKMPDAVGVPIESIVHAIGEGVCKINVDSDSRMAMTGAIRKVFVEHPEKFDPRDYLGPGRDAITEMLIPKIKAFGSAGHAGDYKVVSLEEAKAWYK
The objective of this project is to obtain compounds that inhibit Giardia lamblia growth. G. lamblia is a human pathogen which afflicts impoverished nations; it is the most common cause of outbreaks of diarrhea in the United States. During the course of our study of potential drug targets in Giardia, we have identified the Class II (Zn2+ functions in electrophilic catalysis) fructose-1,6-bisphosphate aldolase (FBPA) as an excellent candidate for drug targeting. FBPA is a key glycolytic pathway enzyme, essential for G. lamblia survival. The human FBPA belongs to the Class I aldolases, which have a different substrate binding site structure and a radically different catalytic mechanism (employing a lysine-Schiff base intermediate). Therefore, affinity-based or mechanism-based inhibitors of the Giardia FBPA are expected not to interfere with the catalytic function of the human FBPA.
A glyceraldehyde-3-phosphate dehydrogenase/triose phosphate isomerase/NAD/arsenate coupled assay was adapted to the 1536-well HTP format for use in the primary screen. This was done by coupling it to a diaphorase/resazurin/resorufin reaction that can be monitored by fluorescence (excitation, 544 nm; emission, 590 nm). Compounds identified in this screen will be further evaluated by coupling the glycerol-3-phosphate/triose phosphate isomerase/NADH assay to a phenazine methosulfate/tetranitroblue tetrazolium color reaction. False positives due to the dehydrogenases and diaphorase inhibition will be eliminated, and selectivity assay will triage inhibitors of mammalian triose phosphate isomerase and the Class I FBPA. G. lamblia FBPA inhibitors identified by the in vitro analyses will be examined for growth inhibition of Giardia trophozoites, and for cytotoxicity in human cells.
Step,Parameter,Value,Description
1,Enzyme reagent,2 uL,40 nM FBPA
2,Compound,23 nL,3.68 nM-57.5 uM final concentration
3,Time,10 min,RT Incubation
4,Substrate/detection Reagent,2 uL,Substrate + enzyme coupling system + AmpLite Red kit
5,Time,20 min,RT Incubation
6,Detector,525 nm/598 nm (Fluorescence),ViewLux Fluorescence Read (Read 1)
1,Medium-binding black solid-bottom Kalypsys plates. FRD or Kalypsys dispenser, 2 uL of FBPA enzyme. Bottle kept at 4C.
2,Compound Library (10 mM ,1:5 dilution). Pin-transferred for a [final] range of 3.68 nM-57.5 uM.
4,FRD or Kalypsys dispenser, 2 uL of reaction mixture. Bottle kept at 4C and covered in foil to protect from light.
6,ViewLux Protocol 1194; Excitation filter wheel A (525/20 Pol; BODIPY TMR FP), Emission filter wheel B (598/25 S; BODIPY TMR FP S).
Keywords: Fructose-bisphosphate aldolase, FBPA , Giardia lamblia , Giardia, HTS, Inhibitors
For the compound `COC(=O)[C@@H]1[C@H]2C[C@H]3c4[nH]c5ccccc5c4CCN3C[C@@H]2CC[C@@H]1O`, the Potency entry is “inactive”.
On to `Cc1cc(C)nc(NN2C(=O)C=CC2=O)n1`, for which the Potency is active: 5.01 µM.
Same read-out and setting: for `Cc1ccccc1/C=N/Nc1nc2ccccc2c(=O)n1O` the value was active: 17.7 µM.
In the case of `CNCC[C@H](Oc1ccccc1OC)c1ccccc1`, the “activity, negative = inhibition” value is inactive: -2.16% [at 21.7 µM].
Consider `O=C(CSc1ccc(-c2ccco2)nn1)N1CCCCC1`, for which the Potency is active: 12.6 µM.
As to `CCC[C@@H]1C[C@@H](C(=O)N[C@@H](C2O[C@H](SC)[C@H](O)[C@@H](O)[C@H]2O)[C@H](C)Cl)N(C)C1` (stereo partly specified), the “activity, negative = inhibition” value was inactive: 2.39%.
As to `CCCCC1=CC2=C(c3ccco3)C(=O)C(C)(OC(=O)c3ccc(OC)cc3)C(=O)C2=CN1Cc1ccco1` (stereo unspecified), the activity, negative = inhibition was inactive: -22.5% [at 12.9 µM].
On to `CCN(CC)C(=O)CC(c1cc(OC)c(OC)c(OC)c1)c1c(O)cc(OC)cc1OC` (stereo unspecified), for which the “activity, negative = inhibition” value was inactive: -28%.
For `Brc1c(NC2=NCCN2)ccc2nccnc12`, the Potency entry is “inactive”.
Consider `Cc1ccc(S(=O)(=O)NC(=O)NN2C[C@H]3CCC[C@@H]3C2)cc1`, for which the “activity, negative = inhibition” value was inactive: -3.62% [at 21.7 µM].
As to `COc1ccc(S(=O)(=O)N2CCC(N3CCN(Cc4ccccc4)CC3)CC2)cc1`, the Potency was active: 12.6 µM.
In the case of `CC(N)C(O)c1ccc(O)c(O)c1` (stereo unspecified), the “activity, negative = inhibition” value is inactive: -27.7%.
On to `O=S(=O)(c1cccc(C(F)(F)F)c1)N(CCCN1CCOCC1)Cc1cccs1`, for which the “activity, negative = inhibition” value was inactive: -15.3%.
`CN(CC(=O)NCc1ccccc1)Cc1cccc(F)c1`: the Potency is active: 10 µM.
`CN1CC(CNC(=O)OCc2ccccc2)CC2c3cccc4c3c(cn4C)CC21` (stereo unspecified): the “activity, negative = inhibition” value is inactive: -16.4%.
As to `CC(=O)N/N=C/c1c(C)[nH]n(-c2ccccc2)c1=O`, the Potency was active: 15.8 µM.
For the compound `CC(NC(=O)NNC(N)=S)(C(F)(F)F)C(F)(F)F`, the Potency was active: 17.7 µM.
In the case of `CC(=O)NCCc1c[nH]c2ccc(O)cc12`, the “activity, negative = inhibition” value was inactive: -21.7%.
As for `CC(=O)N1CCC(=NNc2nc3ccccc3[nH]2)CC1`, the Potency was active: 17.7 µM.
`Oc1ccccc1CNc1cccc2cccnc12`: the Potency is active: 6.29 µM.
In the case of `CC(=O)N(O)CCCCCNC(=O)CCC(=O)N(O)CCCCCNC(=O)CCC(=O)N(O)CCCCCN`, the Potency entry is “inactive”.
As to `COC(=O)/C=C1\N/C(=N\c2nc(C)cc(C)n2)N(c2ccc(Cl)cc2)C1=O`, the “activity, negative = inhibition” value was inactive: -6.44%.
Consider `CO[C@@]1(NC(=O)CSCC#N)C(=O)N2C(C(=O)O)=C(CSc3nnnn3C)CS[C@@H]21`, for which the Potency result was “inactive”.
Regarding `CC1(OC(=O)C2CCCC2)C(=O)C=C2C=C(c3ccsc3)N(c3ccccc3)C=C2C1=O` (stereo unspecified), the activity, negative = inhibition was inactive: 7.2% [at 12.9 µM].
Turning to `COC(=O)c1c(NC(=O)C(C)(C)C)sc2c1CCN(Cc1ccccc1)C2`, the Potency was active: 11.2 µM.
Turning to `Cc1ccccc1NC1=C/C(=N\S(=O)(=O)c2ccc(C(=O)O)cc2)c2ccccc2C1=O`, the Potency was active: 0.794 µM.
`O=C(/C=C/c1ccccc1)Oc1cccc2cccnc12`: the “activity, negative = inhibition” value is inactive: -21.2%.
With `CC[C@@H]1CN2CCc3cc(OC)c(OC)cc3[C@H]2C[C@@H]1C[C@H]1NCCc2cc(OC)c(OC)cc21`, the “activity, negative = inhibition” value is inactive: -1.18% [at 21.7 µM].
Regarding `O=c1c(O)c(-c2ccc(O)c(O)c2)oc2cc(O)ccc12`, the “activity, negative = inhibition” value was inactive: -17%.
Consider `CCOc1ccc2c(c1)C(C)=CC(C)(C)N2`, for which the “activity, negative = inhibition” value is inactive: -21.3%.
In the case of `N#CCC(=O)Nn1c(=S)[nH]c2ccccc2c1=O`, the Potency is active: 3.54 µM.
As to `CCC[C@@H]1C[C@@H](C(=O)NC(C(C)Cl)[C@H]2O[C@H](SC)[C@H](O)[C@@H](O)[C@H]2O)N(C)C1` (stereo partly specified), the “activity, negative = inhibition” value was inactive: -2.75%.
For the compound `COc1cc(-c2ccc(N=Nc3ccc4c(S(=O)(=O)O)cc(S(=O)(=O)O)c(N)c4c3O)c(OC)c2)ccc1N=Nc1ccc2c(S(=O)(=O)O)cc(S(=O)(=O)O)c(N)c2c1O`, the Potency is active: 14.1 µM.
As to `CN1CCN2c3ccccc3Cc3ccccc3[C@@H]2C1`, the “activity, negative = inhibition” value is inactive: -4.77%.
On to `COc1cc2c(cc1O)CC1c3c(cc(O)c(OC)c3-2)CCN1C` (stereo unspecified), for which the “activity, negative = inhibition” value is inactive: -26%.
On the same count and under the same terms, for `NS(=O)(=O)c1cccc2c1c([N+](=O)[O-])cc1nc(O)c(O)nc12` the value was inactive: -9.41%; for `CN1C(C(=O)Nc2ccccn2)=C(O)c2sccc2S1(=O)=O`, inactive: -15%; for `C=CCN1C(=O)[C@]2(c3ccccc31)C1CCCC=C1C(C#N)=C(N)C2(C#N)C#N` (stereo partly specified), inactive: -23.6%.
As for `COc1cccc2c1cc([N+](=O)[O-])c1c(C(=O)O)cc3c(c12)OCO3`, the “activity, negative = inhibition” value is inactive: 6.84%.
With `CN(C)CCc1cc2c(c3c1ccc1ccccc13)OCO2`, the “activity, negative = inhibition” value is inactive: -29.6%.
On the same count and under the same terms, for `COC(=O)CCCC1=CC2=C(c3ccccc3)C(=O)C(C)(OC(=O)C3CCCC3)C(=O)C2=CN1C(CO)CO` (stereo unspecified) the value was inactive: -23.1% [at 12.9 µM]; for `CC1(OC(=O)C2CCCC2)C(=O)C=C2C=C3CCCCN3C=C2C1=O` (stereo unspecified), inactive: -29.4% [at 12.9 µM].
With `COc1cc(/C=C(\C#N)C(=O)c2c[nH]c3ccccc23)cc(OC)c1O`, the Potency is active: 7.92 µM.
`Nc1ccccc1C(=O)CC(N)C(=O)O` (stereo unspecified): the “activity, negative = inhibition” value is inactive: -2.58%.
Turning to `Cc1[nH][nH]c(=O)c1C(c1ccc(-c2ccc(C(=O)O)cc2)o1)c1c(C)[nH][nH]c1=O`, the Potency was active: 5.61 µM.
Take `CC1=C(C(=O)O)N2C(=O)[C@@H](NC(=O)C(N)c3ccccc3)[C@H]2SC1` (stereo partly specified): the “activity, negative = inhibition” value is inactive: -1.64%.
